Test results: the RNAGym collection of RNA variant scans (doi:10.7554/elife.90254)
Read counts are not given, so values of variants with three or more changes are uncertain.

B1: LINE1-mini (parent)
chain: GGCAGAGCUCAACACAGCGUGGCAAAGUGGCUGUGGCUAGACUGCC

Variants of: B1
Experiment: self-cleavage, relative activity (ratio to wild type); higher = more cleavage; in vitro, sequencing; the parent is a self-cleaving ribozyme

Variant	self-cleavage
GGCAGAGCUCAAAACAGCUAGGCAAAGUGGCUGUGGCUAGACUGCU [C13A G19U U20A C46U]	0.05
GGCAGAGCUCAAAAGAGGGUGGCAAAACGACUUUAGCUAGACUGCC [C13A C15G C18G G27A U28C G30A G33U G35A]	0.04
GGCAGAGCUCAAAACAGCGUGGCAAAGUGGCUAUCGCUAGACUUCU [C13A G33A G35C G44U C46U]	0.02
GGCAGAGCUCAAAAAAGCGUGGCAUCGUGGCUGUGGCUAAGCUGCC [C13A C15A A25U A26C G40A A41G]	0.1
GGCAGAGCUCAAAGCAGCGUAGCAAAAUGGCUGUCGCUAGACUGCC [C13A A14G G21A G27A G35C]	0.27
GGCAGAGCUCAAAGCAGCGAGGCAAAGUGGCUGUGGCUAGAGUGCC [C13A A14G U20A C42G]	0.05
GGCAGAGCUCAAAACGGCGUGGCAAAGUGGCUGUGGCUAGAAUGCC [C13A A16G C42A]	0
GGCAGAGCUCAAAACAGCGUGGCAAACUGGCUGUGGCCAGACUGCC [C13A G27C U38C]	0.01
GGCAGAGCUCAAAACAGCGUGGCAAAGUGGAUGUGGCUAGACUUCC [C13A C31A G44U]	0.03
GGCAGAGCUCAAAACAGCUUGGCAAAGUGGCUGUAGCAAGACUGCG [C13A G19U G35A U38A C46G]	0.12
GGCAGAGCUCAAAAGAGCGUGCCAAAGUGGCUGUGGCUAGACUGCC [C13A C15G G22C]	0.03
GGCAGAGCUCAAAAUAGCGUGGCUAAGUGGCUGUGGCAAGACUGCC [C13A C15U A24U U38A]	0.03
GGCAGAGCUCAAAAAAGCACGGCAAAGUGGCUGUGACUACACUGCC [C13A C15A G19A U20C G36A G40C]	0.11
GGCAGAGCUCAAAAGAGCGUGGCAAAGUGGCUGUCGCUAGAGUGCC [C13A C15G G35C C42G]	0.02
GGCAGAGCUCAAAACAGCGUGGCGUAGUGGCUGUUGCUAGACUGCC [C13A A24G A25U G35U]	0.06
GGCAGAGCUCAAAACAUCGUGGCGAAGUGGCUGUGUCUAGACUGAC [C13A G17U A24G G36U C45A]	0.04
GGCAGAGCUCAAAAAAGCGUGGCACAGUUGCUGUGGCUAGACUGCC [C13A C15A A25C G29U]	0.22
GGCAGAGCUCAAAACAGCGUGACAAAGGGGCUGUGGAUAUACUGCU [C13A G22A U28G C37A G40U C46U]	0.18
GGCAGAGCUCAAAACAGCGUGGCAAAGUGGUUGUUGCUAGACUGCA [C13A C31U G35U C46A]	0.17

Variant	self-cleavage
GGCAGAGCUCAUCACAGCGUGGCAAAGUGGCUGUGGCGAGACUGCG [A12U U38G C46G]	0
GGCAGAGCUCAAAACAGCGUGGCAAAGUGUCUGUGGCUAGACUGCU [C13A G30U C46U]	0.09
GGCAGAGCUCAAAACAGCGUGGCAAAGUGUCUGUGGCUAGACUGCA [C13A G30U C46A]	0.05
GGCAGAGCUCAAAACAGCGUGGCAAAGUGGGUGUGGUUAGACUGCC [C13A C31G C37U]	0.06
GGCAGAGCUCAAAACAGCGUGGCAAAGUGGCUGUGACUAGAAUGCC [C13A G36A C42A]	0.09
GGCAGAGCUCAAAACAGCCUGGCAAAGUGGCUGUGUCUAGACUGCC [C13A G19C G36U]	0.05
GGCAGAGCUCAAAACAGUGUGUCAAAGUGGCUGUGGCUAGACUGCC [C13A C18U G22U]	0.11
GGCAGAGCUCAAAACAGCGUGGCAAAGUGGCUGUGACUUGACUGCC [C13A G36A A39U]	0.35
GGCAGAGCUCAAAACAGCGUAGCAAAGUGGCUGUCGCUAGACUUCC [C13A G21A G35C G44U]	0.09
GGCAGAGCUCAAAACAGCGUGGGAAAGUGGCUGUGGGUAGACUGCC [C13A C23G C37G]	0.03
GGCAGAGCUCAAACCAGCGUGGCAAAGUGGCUUUGGCUAGACUGCC [C13A A14C G33U]	0.03
GGCAGAGCUCAAAACACCGUGGCAAAGUGGCUGUGACUACACUGCC [C13A G17C G36A G40C]	0.06
GGCAGAGCUCAAAGCAGCGUGGCAAAGUGGCACGGGCUAGACUGCC [C13A A14G U32A G33C U34G]	0.01
GGCAGAGCUCAAAACAACUUGGCAAAGUGGAUGUGGCUAGACUGCC [C13A G17A G19U C31A]	0.04
GGCAGAGCUCAAAAUAGCGUGACACAGUGGCUGUGGCUAGACUGCC [C13A C15U G22A A25C]	0.12
GGCAGAGCUCAAAACACCGUGGCAAAGUGGCGGUGGCUAGAAUGCC [C13A G17C U32G C42A]	0.1
GGCAGAGCUCAAAACAGCGUCGCUAAGAGGCUGUGGCUAGACUGCC [C13A G21C A24U U28A]	0.04
GGCAGAGCUCAAAACAGCGUGGCAAAGUGGGUUUGGCUAGACUGCU [C13A C31G G33U C46U]	0
GGCAGAGCUCAAAACAGUGUGGAAAAGAGGAUGUGGCUAGACUGCC [C13A C18U C23A U28A C31A]	0.04

Variant	self-cleavage
GGCAGAGCUCAUCACAGCGUGGCAAAGUGGCUGCGGCUAGACUGCA [A12U U34C C46A]	0.02
GGCAGAGCUCAAAACAGCCUGGCAAAGUGGGUGUGGCUAGACUACC [C13A G19C C31G G44A]	0.03
GGCAGAGCUCAAACCAGCGUGGCAAACUGGCUGUGGCUAGACUGCC [C13A A14C G27C]	0.1
GGCAGAGCUCAAAACAGCAUGGGAAAGGGGCUGUGGCUAGACUGCC [C13A G19A C23G U28G]	0.01
GGCAGAGCUCAAAACAGCGUGGCAAAGUGGCUGUGGGUUGACUGCC [C13A C37G A39U]	0.03
GGCAGAGCUCAAAAGGGCGUGGCAAAGUGGCUGUGACUAGACUGGC [C13A C15G A16G G36A C45G]	0.02
GGCAGAGCUCAAACCAGCGUGGGAAAGUGGCUGUGGCUAGACUUCC [C13A A14C C23G G44U]	0.01
GGCAGAGCUCAAAACAGCGUGGCUAAGUUGCUGUGGCUAGACUGCC [C13A A24U G29U]	0.08
GGCAGAGCUCAAAACAGAGUGGCAGAGUGGCUGUGGCUAGACUGCC [C13A C18A A25G]	0.06
GGCAGAGCUCAAAAAAGCGUGGCACAGUGGCUGUGGCUAGACUGCC [C13A C15A A25C]	0.08
GGCAGAGCUCAAAACAGCGUGGCAUAGUGGCUGUGGCUAGACUGUC [C13A A25U C45U]	0.18
GGCAGAGCUCAAAACAGCGUGGAAAUGUGGCUGUGGCUAGACUGCA [C13A C23A A26U C46A]	0.07
GGCAGAGCUCAAAACAGAGUAGCAAAGUGGCUGUGGCUAGACUGCC [C13A C18A G21A]	0.03
GGCAGAGCUCAAAACAGGGUCGCAAAGUGGCUGUGGCUAUACUGCC [C13A C18G G21C G40U]	0.01
GGCAGAGCUCAAAACAGCGUGGCAAAGUGGUUGCGCCUAGACUGCC [C13A C31U U34C G36C]	0.1
GGCAGAGCUCAAAAUAGCGUGGCAAUGUGGCUUUGGCUAGUCUGCC [C13A C15U A26U G33U A41U]	0.18
GGCAGAGCUCAAAACAGCGUGGCAAAGUGGCUUUGGCUAGACUACC [C13A G33U G44A]	0.04
GGCAGAGCUCAAAACAGCGUGGCAAAAAUGGUGUGGCUAGACUGCC [C13A G27A U28A G29U C31G]	0.22
